In the supplement of paper PMC8728848:
This is one part of the list.

Experiments:
Test in all cases: glycan array binding signal (z-score within array); higher = stronger binding
Details in all cases: glycan notation: IUPAC condensed, linker removed; mutation: D325A
[1] = biological target: Fuc(a1-2)Gal
In short: (§1)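 The Consortium for Functional Glycomics database supplied 3228 glycan arrays, of which those lacking an available protein sequence were dropped. The binding signal, a within-array Z-score, was averaged across arrays of the same protein sequence and across linkers. Negative scores can be read as non-binding.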

[2] = biological target: Fuc(a1-2)Gal(b1-3)GalNAc
In short: as §1

[3] = biological target: Fuc(a1-2)Gal(b1-3)GalNAc(b1-3)Gal
In short: as §1

[4] = biological target: Fuc(a1-2)Gal(b1-3)GalNAc(b1-3)Gal(a1-4)Gal(b1-4)Glc
In short: as §1

[5] = biological target: Fuc(a1-2)Gal(b1-3)GalNAc(b1-4)[Neu5Ac(a2-3)]Gal(b1-4)Glc
In short: as §1

[6] = biological target: Fuc(a1-2)Gal(b1-3)GlcNAc
In short: as §1

[7] = biological target: Fuc(a1-2)Gal(b1-3)GlcNAc(b1-3)Gal(b1-4)Glc
In short: as §1

[8] = biological target: Fuc(a1-2)Gal(b1-3)[Fuc(a1-4)]GlcNAc
In short: as §1

[9] = biological target: Fuc(a1-2)Gal(b1-4)Glc
In short: as §1

[10] = biological target: Fuc(a1-2)Gal(b1-4)Glc6S
In short: as §1

[11] = biological target: Fuc(a1-2)Gal(b1-4)GlcNAc
In short: as §1

[12] = biological target: Fuc(a1-2)Gal(b1-4)GlcNAc(b1-3)Gal(b1-4)GlcNAc
In short: as §1

[13] = biological target: Fuc(a1-2)Gal(b1-4)GlcNAc(b1-3)Gal(b1-4)GlcNAc(b1-3)Gal(b1-4)GlcNAc
In short: as §1

[14] = biological target: Fuc(a1-2)Gal(b1-4)GlcNAc6S
In short: as §1

[15] = biological target: Fuc(a1-2)Gal(b1-4)[Fuc(a1-3)]GlcNAc
In short: as §1

[16] = biological target: Fuc(a1-2)Gal(b1-4)[Fuc(a1-3)]GlcNAc(b1-3)Gal(b1-4)[Fuc(a1-3)]GlcNAc
In short: as §1

[17] = biological target: Fuc(a1-2)Gal(b1-4)[Fuc(a1-3)]GlcNAc(b1-3)Gal(b1-4)[Fuc(a1-3)]GlcNAc(b1-3)Gal(b1-4)[Fuc(a1-3)]GlcNAc
In short: as §1

[18] = biological target: Fuc(a1-2)Gal6S(b1-4)Glc
In short: as §1

[19] = biological target: Fuc(a1-2)Gal6S(b1-4)Glc6S
In short: as §1

[20] = biological target: Fuc(a1-2)Gal6S(b1-4)GlcNAc
In short: as §1

[21] = biological target: Fuc(a1-2)[Gal(a1-3)]Gal
In short: as §1

[22] = biological target: Fuc(a1-2)[Gal(a1-3)]Gal(b1-3)GlcNAc
In short: as §1

[23] = biological target: Fuc(a1-2)[Gal(a1-3)]Gal(b1-4)Glc
In short: as §1

[24] = biological target: Fuc(a1-2)[Gal(a1-3)]Gal(b1-4)GlcNAc
In short: as §1

[25] = biological target: Fuc(a1-2)[Gal(a1-3)]Gal(b1-4)[Fuc(a1-3)]GlcNAc
In short: as §1

[26] = biological target: Fuc(a1-2)[Gal(a1-4)]Gal(b1-4)GlcNAc
In short: as §1

[27] = biological target: Fuc(a1-2)[GalNAc(a1-3)]Gal
In short: as §1

[28] = biological target: Fuc(a1-2)[GalNAc(a1-3)]Gal(b1-3)GlcNAc
In short: as §1

[29] = biological target: Fuc(a1-2)[GalNAc(a1-3)]Gal(b1-4)Glc
In short: as §1

[30] = biological target: Fuc(a1-2)[GalNAc(a1-3)]Gal(b1-4)GlcNAc
In short: as §1

[31] = biological target: Fuc(a1-2)[GalNAc(a1-3)]Gal(b1-4)[Fuc(a1-3)]GlcNAc
In short: as §1

[32] = biological target: Fuc(a1-2)[GalNAc(a1-4)]Gal(b1-4)GlcNAc
In short: as §1

[33] = biological target: Fuc(a1-2)[GalNAc(b1-3)]Gal
In short: as §1

[34] = biological target: Fuc(a1-3)GlcNAc
In short: as §1

[35] = biological target: Fuc(a1-3)[Gal(b1-4)]Glc6S
In short: as §1

[36] = biological target: Fuc(a1-3)[Gal(b1-4)]GlcNAc
In short: as §1

[37] = biological target: Fuc(a1-3)[Gal(b1-4)]GlcNAc(b1-2)Man(a1-3)[Fuc(a1-3)[Gal(b1-4)]GlcNAc(b1-2)Man(a1-6)]Man(b1-4)GlcNAc(b1-4)GlcNAc
In short: as §1

[38] = biological target: Fuc(a1-3)[Gal(b1-4)]GlcNAc(b1-2)Man(a1-6)[Gal(b1-4)GlcNAc(b1-2)Man(a1-3)]Man(b1-4)GlcNAc(b1-4)GlcNAc
In short: as §1

[39] = biological target: Fuc(a1-3)[Gal(b1-4)]GlcNAc(b1-3)Gal(b1-3)[Fuc(a1-4)]GlcNAc
In short: as §1

[40] = biological target: Fuc(a1-3)[Gal(b1-4)]GlcNAc(b1-4)Gal(b1-4)[Fuc(a1-3)]GlcNAc
In short: as §1

[41] = biological target: Fuc(a1-3)[Gal(b1-4)]GlcNAc(b1-4)Gal(b1-4)[Fuc(a1-3)]GlcNAc(b1-4)Gal(b1-4)[Fuc(a1-3)]GlcNAc
In short: as §1

[42] = biological target: Fuc(a1-3)[Gal(b1-4)]GlcNAc6S
In short: as §1

[43] = biological target: Fuc(a1-3)[Gal3S(b1-4)]Glc6S
In short: as §1

[44] = biological target: Fuc(a1-3)[Gal3S(b1-4)]GlcNAc
In short: as §1

[45] = biological target: Fuc(a1-3)[Gal3S(b1-4)]GlcNAc6S
In short: as §1

[46] = biological target: Fuc(a1-3)[GalNAc(b1-4)]GlcNAc
In short: as §1

[47] = biological target: Fuc(a1-4)GlcNAc
In short: as §1

[48] = biological target: Fuc(b1-3)GlcNAc
In short: as §1

[49] = biological target: Gal(a1-2)Gal
In short: as §1

[50] = biological target: Gal(a1-3)Gal
In short: as §1

[51] = biological target: Gal(a1-3)Gal(b1-3)GlcNAc
In short: as §1

[52] = biological target: Gal(a1-3)Gal(b1-4)Glc
In short: as §1

[53] = biological target: Gal(a1-3)Gal(b1-4)GlcNAc
In short: as §1

[54] = biological target: Gal(a1-3)Gal(b1-4)[Fuc(a1-3)]GlcNAc
In short: as §1

[55] = biological target: Gal(a1-3)GalNAc
In short: as §1

[56] = biological target: Gal(a1-3)[Gal(a1-4)]Gal(b1-4)GlcNAc
In short: as §1

[57] = biological target: Gal(a1-4)Gal(b1-4)Glc
In short: as §1

[58] = biological target: Gal(a1-4)Gal(b1-4)GlcNAc
In short: as §1

[59] = biological target: Gal(a1-4)GlcNAc
In short: as §1

[60] = biological target: Gal(a1-6)Glc
In short: as §1

[61] = biological target: Gal(b1-2)Gal
In short: as §1

[62] = biological target: Gal(b1-3)Gal
In short: as §1

[63] = biological target: Gal(b1-3)Gal(b1-4)GlcNAc
In short: as §1

[64] = biological target: Gal(b1-3)GalNAc
In short: as §1

[65] = biological target: Gal(b1-3)GalNAc(b1-3)Gal(a1-4)Gal(b1-4)Glc
In short: as §1

[66] = biological target: Gal(b1-3)GalNAc(b1-4)Gal(b1-4)Glc
In short: as §1

[67] = biological target: Gal(b1-3)GalNAc(b1-4)[Neu5Ac(a2-3)]Gal(b1-4)Glc
In short: as §1

[68] = biological target: Gal(b1-3)GlcNAc
In short: as §1

[69] = biological target: Gal(b1-3)GlcNAc(b1-2)Man(a1-3)[Gal(b1-3)GlcNAc(b1-2)Man(a1-6)]Man(b1-4)GlcNAc(b1-4)GlcNAc
In short: as §1

[70] = biological target: Gal(b1-3)GlcNAc(b1-3)Gal(b1-3)GlcNAc
In short: as §1

[71] = biological target: Gal(b1-3)GlcNAc(b1-3)Gal(b1-4)Glc
In short: as §1

[72] = biological target: Gal(b1-3)GlcNAc(b1-3)Gal(b1-4)GlcNAc
In short: as §1

[73] = biological target: Gal(b1-3)[Fuc(a1-4)]GlcNAc
In short: as §1

[74] = biological target: Gal(b1-3)[Fuc(a1-4)]GlcNAc(b1-3)Gal(b1-3)[Fuc(a1-4)]GlcNAc
In short: as §1

[75] = biological target: Gal(b1-3)[Fuc(a1-4)]GlcNAc(b1-3)Gal(b1-4)GlcNAc
In short: as §1

B1: Surfactant Protein D (Human); Neck + Carbohydrate Recognition Domain (NCRD) (Homo sapiens) (protein)
chain: MLLFLLSALVLLTQPLGYLEAEMKTYSHRTMPSACTLVMCSSVESGLPGRDRDGREGPRGEKGDPGLPGAAGQAGMPGQAGPVGPKGDNGSVGEPGPKGDTGPSGPPGPPGVPGPAGREGALGKQGNIGPQGKPGPKGEAGPKGEVGAPGMQGSAGARGLAGPKGERGVPGERGVPGNTGAAGSAGAMGPQGSPGARGPPGLKGDKGIPGDKGAKGESGLPDVASLRQQVEALQGQVQHLQAAFSQYKKVELFPNGQSVGEKIFKTAQFVKPFTEAQLLCTQAGGQLASPRSAAENAALQQLVVAKNEAAFLSMTDSKTEGKFTYPTGESLVYSNWAPGEPNDAGGSEDCVEIFTNGKWNDRACGEKRLVVCEF
glycan array binding signal (z-score) [1]: -0.27 | glycan array binding signal (z-score) [2]: -0.268 | glycan array binding signal (z-score) [3]: -0.272 | glycan array binding signal (z-score) [4]: -0.271 | glycan array binding signal (z-score) [5]: -0.163 | glycan array binding signal (z-score) [6]: -0.276 | glycan array binding signal (z-score) [7]: -0.268 | glycan array binding signal (z-score) [8]: -0.268 | glycan array binding signal (z-score) [9]: -0.269 | glycan array binding signal (z-score) [10]: -0.27 | glycan array binding signal (z-score) [11]: -0.268 | glycan array binding signal (z-score) [12]: -0.226 | glycan array binding signal (z-score) [13]: -0.267 | glycan array binding signal (z-score) [14]: -0.172 | glycan array binding signal (z-score) [15]: -0.273 | glycan array binding signal (z-score) [16]: -0.243 | glycan array binding signal (z-score) [17]: 1.02 | glycan array binding signal (z-score) [18]: -0.271 | glycan array binding signal (z-score) [19]: -0.26 | glycan array binding signal (z-score) [20]: -0.266 | glycan array binding signal (z-score) [21]: -0.251 | glycan array binding signal (z-score) [22]: -0.251 | glycan array binding signal (z-score) [23]: -0.272 | glycan array binding signal (z-score) [24]: -0.27 | glycan array binding signal (z-score) [25]: -0.253 | glycan array binding signal (z-score) [26]: -0.273 | glycan array binding signal (z-score) [27]: -0.217 | glycan array binding signal (z-score) [28]: -0.272 | glycan array binding signal (z-score) [29]: -0.261 | glycan array binding signal (z-score) [30]: -0.247 | glycan array binding signal (z-score) [31]: -0.247 | glycan array binding signal (z-score) [32]: -0.264 | glycan array binding signal (z-score) [33]: -0.268 | glycan array binding signal (z-score) [34]: -0.252 | glycan array binding signal (z-score) [35]: -0.275 | glycan array binding signal (z-score) [36]: -0.237 | glycan array binding signal (z-score) [37]: 0.015 | glycan array binding signal (z-score) [38]: -0.272 | glycan array binding signal (z-score) [39]: -0.274 | glycan array binding signal (z-score) [40]: -0.225 | glycan array binding signal (z-score) [41]: -0.14 | glycan array binding signal (z-score) [42]: -0.272 | glycan array binding signal (z-score) [43]: -0.246 | glycan array binding signal (z-score) [44]: -0.269 | glycan array binding signal (z-score) [45]: -0.263 | glycan array binding signal (z-score) [46]: -0.274 | glycan array binding signal (z-score) [47]: -0.272 | glycan array binding signal (z-score) [48]: 0.579 | glycan array binding signal (z-score) [49]: -0.274 | glycan array binding signal (z-score) [50]: -0.264 | glycan array binding signal (z-score) [51]: -0.271 | glycan array binding signal (z-score) [52]: -0.273 | glycan array binding signal (z-score) [53]: -0.232 | glycan array binding signal (z-score) [54]: -0.267 | glycan array binding signal (z-score) [55]: -0.164 | glycan array binding signal (z-score) [56]: -0.269 | glycan array binding signal (z-score) [57]: -0.267 | glycan array binding signal (z-score) [58]: -0.262 | glycan array binding signal (z-score) [59]: -0.265 | glycan array binding signal (z-score) [60]: -0.236 | glycan array binding signal (z-score) [61]: -0.262 | glycan array binding signal (z-score) [62]: -0.273 | glycan array binding signal (z-score) [63]: -0.267 | glycan array binding signal (z-score) [64]: -0.266 | glycan array binding signal (z-score) [65]: -0.27 | glycan array binding signal (z-score) [66]: -0.253 | glycan array binding signal (z-score) [67]: -0.264 | glycan array binding signal (z-score) [68]: -0.258 | glycan array binding signal (z-score) [69]: -0.276 | glycan array binding signal (z-score) [70]: -0.261 | glycan array binding signal (z-score) [71]: -0.267 | glycan array binding signal (z-score) [72]: -0.267 | glycan array binding signal (z-score) [73]: -0.254 | glycan array binding signal (z-score) [74]: -0.265 | glycan array binding signal (z-score) [75]: -0.269
